The text below walks through data of the supplement of paper PMC11417369.

The list shows a part of the results.

This assay relates to PfHDP1 homeodomain (GST-tagged). Description: gcPBM binding intensity (ln(normalized median fluorescence intensity)); higher = stronger DNA binding. The essentials:
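Plasmodium falciparum DNA-binding domains carrying a GST tag were expressed in E. coli and applied for 1 h, at about 25 μg on average, to an Agilent 4 × 180k array. The array held primer-extended double-stranded 36-bp intergenic genomic probes together with negative controls, and binding took place in 1× PBS with 1% milk, 0.2 mg/ml BSA, 0.5% salmon testes DNA and 0.03% Triton X-100. An Alexa488 anti-GST antibody detected bound protein, and the array was scanned at 488 nm. Binding intensity is taken as the highest Masliner-normalised natural-log median intensity across replicate spots of either probe orientation.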
As for “AAAAAAAAAATTAAAACATGCATAAATAAATATATT [TGCATGCA_site866]”, the “gcPBM binding intensity (ln)” value stood at 6.47.
Take “TCATTTCACAGACACACACACACAATATATTTCCTT [CACACA_site9295]”: the “gcPBM binding intensity (ln)” value was 7.36.
As to “ATATTTTTATTAGTAGTGCAATTTAGTGTATATATA [GTGCAC_site9542]”, the “gcPBM binding intensity (ln)” value is 10.1.
On to “TATGTGTAATATTTTTGTACAGAAAAAAAAAAAAAA [XGTACX_site7075]”, for which the “gcPBM binding intensity (ln)” value was 6.41.
“AAAAAAAAAAAAAACACACACATGCACATCATATTA [CACACA_site4467]”: the “gcPBM binding intensity (ln)” value was 7.97.
Under “AAATATTTTTTTTCTACACACATACAAATATAGATT [CACACA_site7164]” stands 6.75; under “ATGCCCCATATAAACACACAAATAAAAAGAATATAC [CACACA_site7292]”, 7.22; under “TGTAGTCTGGAGAAACGTACACAGTATCTGGTAACA [XGTACX_site4938]”, 6.07.
Regarding “AAAGGGGATATATGAACACACAAAAAAAAAATATAT [CACACA_site2896]”, the “gcPBM binding intensity (ln)” value came out at 6.78.
Consider “TATTTATTACTATGTAAACACACATGCAATATATGT [CACACA_site8288]”, for which the “gcPBM binding intensity (ln)” value came out at 6.69.
For the sequence “ATATTTAAAGAATAAGTGCAAAATGTAATTAATTTT [GTGCAC_site9901]”, the “gcPBM binding intensity (ln)” value was determined as 9.7.
Turning to “TATATTTTATAAAAAAGTACACATGAAAATGTATTT [XGTACX_site5889]”, the “gcPBM binding intensity (ln)” value turned out to be 6.14.
As to “AAATTTTATTATAGCAGTACAATATAATATTATTAA [XGTACX_site1971]”, the “gcPBM binding intensity (ln)” value was 6.33.
Regarding “TTTTTTCCTTTTAATTGTACACAGATATAATATATT [XGTACX_site2230]”, the “gcPBM binding intensity (ln)” value was 6.77.
Consider “TGTTGATGATATTACACACCCAATGAGAAAAGGAAT [CACACA_site2072]”, for which the “gcPBM binding intensity (ln)” value is 7.07.
Under “TTTTACAAAATAAAAATATAGAATACGGTAAATTAT [GTGCAC_negctrl_site40]” stands 6.74; under “TAAAAATGTGGACACACACACATATTTATATTTAAT [CACACA_site6827]”, 6.38.
Take “TATCATTTTATTATTCTACACACTTATCTATAATTA [CACACA_site7894]”: the “gcPBM binding intensity (ln)” value was 6.56.
As for “TTTTTTTTTTTTTTTGCATGTTGTTTAATGTATTGT [TGCATGCA_site772]”, the “gcPBM binding intensity (ln)” value was determined as 6.47.
For “AAATAAGAGCGTAGCACACACGCATTTTATAAATGT [CACACA_site741]”, the “gcPBM binding intensity (ln)” value stood at 6.39.
For “AATATATTTTTCTACCGTACATAATAAAATATATAT [XGTACX_site1777]”, the “gcPBM binding intensity (ln)” value stood at 6.77.
The figure for “GAACCACTAAAATGAGCATGCTCATATTTACATATA [TGCATGCA_site1033]” is 9.44; for “TATTTATTTATTTATTGTACATAAGTATATATTATA [XGTACX_site6566]” it is 6.52; for “AAAAAAAAAAAAAGTACACACTTTTGCGTACATGTA [CACACA_site7449]” it is 6.49.
Consider “AAAAAGTAGTAAAACAGTACAGTATTTATGCCTATT [XGTACX_site6434]”, for which the “gcPBM binding intensity (ln)” value stood at 6.69.
Regarding “TGGTATGTTTTACAAAGTACCCATCGATTCTTATGT [XGTACX_site2822]”, the “gcPBM binding intensity (ln)” value turned out to be 6.03.
Under “ATTACATACACGCGCACACACAAAAAAAAAAAAAAA [CACACA_site1334]” stands 7.49.
Under “GTACTCTTCTCCAGACTGCACTATACGACTCGTACA [GTGCAC_site9770]” stands 7.35.
With “ATATATATATATATATGTACTTATATATAATATAGA [XGTACX_site3488]”, the “gcPBM binding intensity (ln)” value is 9.28.
Turning to “TATTATATATATAAATGTACTTATTTTAATTCCCCT [XGTACX_site8638]”, the “gcPBM binding intensity (ln)” value was 6.54.
In the case of “TTTTGTTTATTATGATTCAAAATGATTTTATCTTTG [TGCATGCA_negctrl_site425]”, the “gcPBM binding intensity (ln)” value worked out at 6.17.
In the case of “AAAAAAACATGAAACACACACAAATATTTATTTATA [CACACA_site6967]”, the “gcPBM binding intensity (ln)” value was determined as 6.68.
For the sequence “TGTTTCCAAAAAAAAAAAAAAAAAAAAAAAAAAAAA [CACACA_negctrl_site358]”, the “gcPBM binding intensity (ln)” value worked out at 6.2.
The figure for “TAAAAAAAATAGTCAAGTACATAAGAAGGGAAGAAA [XGTACX_site8733]” is 6.62; for “ACTAAAAGATATATAATTTCTTTCTTATTTATTTTT [CACACA_negctrl_site842]” it is 6.02.
Turning to “TTATTCATATTATCATGTACTTATATATATTGTCAT [XGTACX_site2231]”, the “gcPBM binding intensity (ln)” value came out at 6.42.
For the sequence “AATAAATAAGCAACATGTACATACAAATATATACAT [XGTACX_site8529]”, the “gcPBM binding intensity (ln)” value stood at 6.37.
Regarding “TTTAATTTTTTTAATTCACACATTATTCCATCCTTT [CACACA_site5480]”, the “gcPBM binding intensity (ln)” value was found to be 6.39.
On to “ATCTAATAAAAATACACACACATATGATTTGTGAAT [CACACA_site1867]”, for which the “gcPBM binding intensity (ln)” value worked out at 6.61.
In the case of “ATTTTCCATTGTGCTACACACAACGGTTCGCAATAA [CACACA_site2974]”, the “gcPBM binding intensity (ln)” value is 6.63.
With “ATATTTAAATGTAATACATGCAAATTTGAACATTTT [TGCATGCA_site736]”, the “gcPBM binding intensity (ln)” value is 7.17.
“TAATATATTAACATGGGTACATATTATTTCATGTGT [XGTACX_site5985]”: the “gcPBM binding intensity (ln)” value worked out at 6.42.
Under “AAAAAAAAAAAAATCACACATATGTATTTATATATA [CACACA_site5790]” stands 6.22; under “AAAAATTTAAGTGGGGGTACATTTTTTTAACACCTT [XGTACX_site1093]”, 7.13.
Turning to “AACAAACACGGACACACACACACACTAGAATGATTA [CACACA_site5364]”, the “gcPBM binding intensity (ln)” value amounted to 7.13.
As to “TCTTTTAAAAAAAAAGGAGGAACATAAAAAGTAGAA [XGTACX_negctrl_site272]”, the “gcPBM binding intensity (ln)” value came to 6.75.
As to “ATAATTACAAAATAAACACACATATAGATTTATATG [CACACA_site6343]”, the “gcPBM binding intensity (ln)” value came out at 6.35.
For the sequence “CACATATATATGTGTGCATGTTGTATTATATATTTA [TGCATGCA_site632]”, the “gcPBM binding intensity (ln)” value was determined as 8.72.
Under “TACATAATACATATAACACACACAATTATACATAAA [CACACA_site9060]” stands 6.78.
With “ATATAATTAAAATGCTCACACACATAAAAAAAAATT [CACACA_site2148]”, the “gcPBM binding intensity (ln)” value came to 8.58.
Under “GTACATATATACATTACACACGGTTTGATTTAAAAA [CACACA_site3379]” stands 6.65.
For “ATTTTATTTTTTAAAGGTACAGTTACAGCTTATATA [XGTACX_site7513]”, the “gcPBM binding intensity (ln)” value came to 6.29.
